# The supplement of paper PMC8728848
# The other results are listed elsewhere or left out.
# B1: Blon2468mut (Bifidobacterium longum) (protein)
# chain: MTFIKQMMPRYVASMTAGIVAAAMAATCAFAPVANADAVSPTQETIQSTGRHFMVYYRAWRDVTMKGVNTDLPDDNWISMYDIPYGVDVVNIFSYVPSGQEEQAQPFYDKLKSDYAPYLHSRGIKLVRGIDYTGVAVNGFRTFMKEQNKTESEATEADYDAYAKQVIDKYMISVGLDGLDIDMQAHPNDADVKISDNVIRALSKHIGPKSAKPDTTMFLYDTNGSYLNPFKNVAECFDYVAYQQYGSSSDRTARAAADYQPYIGNEFVPGLTFPEEGDMNNRWYDATEPYEESHFYQVASYVREHNLGGMFVYALDRDGRNYDEDLRRIVPSNLLWTKTAIAESEGMALDTAKTAANHYLDRMSLRQVIDDNAASADKARDMVGKAANLYETNKAVLGGDYGEGFSNTYDPTLEAGLLGIDISVLQQQIDKSSEIIGADTAESDAKTALRMARDAAIDGLTGKIYTADQVSAWSQALKAALDATVPVPTPDSTDQNGNRDKVTNHKVQGQPKQLSATGISTDIIVAVGVTLAIAGVALSLSRKLS
# Experiments:
# Experiment in all cases: glycan array binding signal (z-score within array); higher = stronger binding
# Settings in all cases: glycan notation: IUPAC condensed, linker removed
# [1] = target: Fuc(a1-2)[Gal(a1-3)]Gal(b1-4)GlcNAc(b1-2)Man(a1-3)[Fuc(a1-2)[Gal(a1-3)]Gal(b1-4)GlcNAc(b1-2)Man(a1-6)]Man(b1-4)GlcNAc(b1-4)[Fuc(a1-6)]GlcNAc
# Outline: (§1)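 Negative Z-scores can be read as non-binding. The Z-score is calculated within each array and then averaged across arrays of one protein sequence at different concentrations or buffers and across linkers. Arrays, 3228 in all, were curated from the Consortium for Functional Glycomics database and kept only where the protein sequence was available.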
# [2] = target: Fuc(a1-2)[Gal(a1-3)]Gal(b1-4)GlcNAc(b1-3)GalNAc
# Outline: as §1
# [3] = target: Fuc(a1-2)[Gal(a1-3)]Gal(b1-4)GlcNAc(b1-6)GalNAc
# Outline: as §1
# [4] = target: Fuc(a1-2)[Gal(a1-3)]Gal(b1-4)[Fuc(a1-3)]Glc
# Outline: as §1
# [5] = target: Fuc(a1-2)[Gal(a1-3)]Gal(b1-4)[Fuc(a1-3)]GlcNAc
# Outline: as §1
# [6] = target: Fuc(a1-2)[Gal(a1-3)]Gal(b1-4)[Fuc(a1-3)]GlcNAc(b1-3)GalNAc
# Outline: as §1
# [7] = target: Fuc(a1-2)[Gal(a1-4)]Gal(b1-4)GlcNAc
# Outline: as §1
# [8] = target: Fuc(a1-2)[GalNAc(a1-3)]Gal
# Outline: as §1
# [9] = target: Fuc(a1-2)[GalNAc(a1-3)]Gal(b1-3)GalNAc(a1-3)[Fuc(a1-2)]Gal(b1-4)GlcNAc
# Outline: as §1
# [10] = target: Fuc(a1-2)[GalNAc(a1-3)]Gal(b1-3)GalNAc(b1-3)Gal(a1-4)Gal(b1-4)Glc
# Outline: as §1
# [11] = target: Fuc(a1-2)[GalNAc(a1-3)]Gal(b1-3)GlcNAc
# Outline: as §1
# [12] = target: Fuc(a1-2)[GalNAc(a1-3)]Gal(b1-3)GlcNAc(b1-2)Man(a1-3)[Fuc(a1-2)[GalNAc(a1-3)]Gal(b1-3)GlcNAc(b1-2)Man(a1-6)]Man(b1-4)GlcNAc(b1-4)GlcNAc
# Outline: as §1
# [13] = target: Fuc(a1-2)[GalNAc(a1-3)]Gal(b1-3)GlcNAc(b1-2)Man(a1-3)[Fuc(a1-2)[GalNAc(a1-3)]Gal(b1-3)GlcNAc(b1-2)Man(a1-6)]Man(b1-4)GlcNAc(b1-4)[Fuc(a1-6)]GlcNAc
# Outline: as §1
# [14] = target: Fuc(a1-2)[GalNAc(a1-3)]Gal(b1-3)GlcNAc(b1-3)GalNAc
# Outline: as §1
# [15] = target: Fuc(a1-2)[GalNAc(a1-3)]Gal(b1-3)GlcNAc(b1-6)GalNAc
# Outline: as §1
# [16] = target: Fuc(a1-2)[GalNAc(a1-3)]Gal(b1-4)Glc
# Outline: as §1
# [17] = target: Fuc(a1-2)[GalNAc(a1-3)]Gal(b1-4)GlcNAc
# Outline: as §1
# [18] = target: Fuc(a1-2)[GalNAc(a1-3)]Gal(b1-4)GlcNAc(b1-2)Man
# Outline: as §1
# [19] = target: Fuc(a1-2)[GalNAc(a1-3)]Gal(b1-4)GlcNAc(b1-2)Man(a1-3)[Fuc(a1-2)[GalNAc(a1-3)]Gal(b1-4)GlcNAc(b1-2)Man(a1-6)]Man(b1-4)GlcNAc(b1-4)GlcNAc
# Outline: as §1
# [20] = target: Fuc(a1-2)[GalNAc(a1-3)]Gal(b1-4)GlcNAc(b1-2)Man(a1-3)[Fuc(a1-2)[GalNAc(a1-3)]Gal(b1-4)GlcNAc(b1-2)Man(a1-6)]Man(b1-4)GlcNAc(b1-4)[Fuc(a1-6)]GlcNAc
# Outline: as §1
# [21] = target: Fuc(a1-2)[GalNAc(a1-3)]Gal(b1-4)GlcNAc(b1-3)Gal(b1-4)GlcNAc
# Outline: as §1
# [22] = target: Fuc(a1-2)[GalNAc(a1-3)]Gal(b1-4)GlcNAc(b1-3)Gal(b1-4)GlcNAc(b1-3)Gal(b1-4)GlcNAc
# Outline: as §1
# [23] = target: Fuc(a1-2)[GalNAc(a1-3)]Gal(b1-4)GlcNAc(b1-3)GalNAc
# Outline: as §1
# [24] = target: Fuc(a1-2)[GalNAc(a1-3)]Gal(b1-4)GlcNAc(b1-3)[Fuc(a1-2)[GalNAc(a1-3)]Gal(b1-4)GlcNAc(b1-6)]GalNAc
# Outline: as §1
# [25] = target: Fuc(a1-2)[GalNAc(a1-3)]Gal(b1-4)GlcNAc(b1-6)GalNAc
# Outline: as §1
# [26] = target: Fuc(a1-2)[GalNAc(a1-3)]Gal(b1-4)[Fuc(a1-3)]GlcNAc
# Outline: as §1
# [27] = target: Fuc(a1-2)[GalNAc(a1-3)]Gal(b1-4)[Fuc(a1-3)]GlcNAc(b1-3)GalNAc
# Outline: as §1
# [28] = target: Fuc(a1-2)[GalNAc(a1-4)]Gal(b1-4)GlcNAc
# Outline: as §1
# [29] = target: Fuc(a1-2)[GalNAc(b1-3)]Gal
# Outline: as §1
# Fuc(a1-3)GlcNAc = target: Fuc(a1-3)GlcNAc
# Outline: as §1
# [30] = target: Fuc(a1-3)[Gal(b1-4)]Glc6S
# Outline: as §1
# [31] = target: Fuc(a1-3)[Gal(b1-4)]GlcNAc
# Outline: as §1
# [32] = target: Fuc(a1-3)[Gal(b1-4)]GlcNAc(b1-2)Man
# Outline: as §1
# [33] = target: Fuc(a1-3)[Gal(b1-4)]GlcNAc(b1-2)Man(a1-3)[Fuc(a1-3)[Gal(b1-4)]GlcNAc(b1-2)Man(a1-6)]Man(b1-4)GlcNAc(b1-4)GlcNAc
# Outline: as §1
# [34] = target: Fuc(a1-3)[Gal(b1-4)]GlcNAc(b1-2)Man(a1-3)[Fuc(a1-3)[Gal(b1-4)]GlcNAc(b1-2)Man(a1-6)]Man(b1-4)GlcNAc(b1-4)[Fuc(a1-6)]GlcNAc
# Outline: as §1
# [35] = target: Fuc(a1-3)[Gal(b1-4)]GlcNAc(b1-3)Gal(b1-3)[Fuc(a1-4)]GlcNAc
# Outline: as §1
# [36] = target: Fuc(a1-3)[Gal(b1-4)]GlcNAc(b1-3)GalNAc
# Outline: as §1
# [37] = target: Fuc(a1-3)[Gal(b1-4)]GlcNAc(b1-4)Gal(b1-4)[Fuc(a1-3)]GlcNAc
# Outline: as §1
# [38] = target: Fuc(a1-3)[Gal(b1-4)]GlcNAc(b1-4)Gal(b1-4)[Fuc(a1-3)]GlcNAc(b1-4)Gal(b1-4)[Fuc(a1-3)]GlcNAc
# Outline: as §1
# [39] = target: Fuc(a1-3)[Gal(b1-4)]GlcNAc(b1-6)GalNAc
# Outline: as §1
# [40] = target: Fuc(a1-3)[Gal(b1-4)]GlcNAc(b1-6)[Gal(b1-3)GlcNAc(b1-3)]Gal(b1-4)Glc
# Outline: as §1
# [41] = target: Fuc(a1-3)[Gal(b1-4)]GlcNAc6S
# Outline: as §1
# [42] = target: Fuc(a1-3)[Gal3S(b1-4)]Glc
# Outline: as §1
# [43] = target: Fuc(a1-3)[Gal3S(b1-4)]GlcNAc
# Outline: as §1
# [44] = target: Fuc(a1-3)[Gal3S(b1-4)]GlcNAc6S
# Outline: as §1
# [45] = target: Fuc(a1-3)[GalNAc(b1-4)]GlcNAc
# Outline: as §1
# [46] = target: Fuc(a1-3)[GalNAc(b1-4)]GlcNAc6S
# Outline: as §1
# Fuc(a1-4)GlcNAc = target: Fuc(a1-4)GlcNAc
# Outline: as §1
# Fuc(b1-3)GlcNAc = target: Fuc(b1-3)GlcNAc
# Outline: as §1
# Gal(a1-2)Gal = target: Gal(a1-2)Gal
# Outline: as §1
# Gal(a1-3)Gal = target: Gal(a1-3)Gal
# Outline: as §1
# Gal(a1-3)Gal(b1-3)GlcNAc = target: Gal(a1-3)Gal(b1-3)GlcNAc
# Outline: as §1
# [47] = target: Gal(a1-3)Gal(b1-3)GlcNAc(b1-2)Man
# Outline: as §1
# [48] = target: Gal(a1-3)Gal(b1-3)GlcNAc(b1-2)Man(a1-3)[Gal(a1-3)Gal(b1-3)GlcNAc(b1-2)Man(a1-6)]Man(b1-4)GlcNAc(b1-4)GlcNAc
# Outline: as §1
# [49] = target: Gal(a1-3)Gal(b1-3)GlcNAc(b1-3)GalNAc
# Outline: as §1
# [50] = target: Gal(a1-3)Gal(b1-3)GlcNAc(b1-6)GalNAc
# Outline: as §1
# [51] = target: Gal(a1-3)Gal(b1-3)[Fuc(a1-4)]GlcNAc(b1-2)Man(a1-3)[Gal(a1-3)Gal(b1-3)[Fuc(a1-4)]GlcNAc(b1-2)Man(a1-6)]Man(b1-4)GlcNAc(b1-4)GlcNAc
# Outline: as §1
# Gal(a1-3)Gal(b1-4)Glc = target: Gal(a1-3)Gal(b1-4)Glc
# Outline: as §1
# Gal(a1-3)Gal(b1-4)GlcNAc = target: Gal(a1-3)Gal(b1-4)GlcNAc
# Outline: as §1
# [52] = target: Gal(a1-3)Gal(b1-4)GlcNAc(b1-2)Man
# Outline: as §1
binder,measurement,setting,value
B1,glycan array binding signal (z-score),[1],-0.065
same,glycan array binding signal (z-score),[2],-0.072
same,glycan array binding signal (z-score),[3],-0.011
same,glycan array binding signal (z-score),[4],-0.082
same,glycan array binding signal (z-score),[5],-0.049
same,glycan array binding signal (z-score),[6],-0.064
same,glycan array binding signal (z-score),[7],-0.06
same,glycan array binding signal (z-score),[8],-0.054
same,glycan array binding signal (z-score),[9],-0.077
same,glycan array binding signal (z-score),[10],-0.069
same,glycan array binding signal (z-score),[11],-0.077
same,glycan array binding signal (z-score),[12],-0.076
same,glycan array binding signal (z-score),[13],-0.036
same,glycan array binding signal (z-score),[14],-0.047
same,glycan array binding signal (z-score),[15],-0.068
same,glycan array binding signal (z-score),[16],-0.027
same,glycan array binding signal (z-score),[17],-0.07
same,glycan array binding signal (z-score),[18],-0.064
same,glycan array binding signal (z-score),[19],-0.055
same,glycan array binding signal (z-score),[20],-0.089
same,glycan array binding signal (z-score),[21],-0.089
same,glycan array binding signal (z-score),[22],-0.095
same,glycan array binding signal (z-score),[23],-0.06
same,glycan array binding signal (z-score),[24],-0.072
same,glycan array binding signal (z-score),[25],-0.063
same,glycan array binding signal (z-score),[26],-0.04
same,glycan array binding signal (z-score),[27],-0.073
same,glycan array binding signal (z-score),[28],-0.021
same,glycan array binding signal (z-score),[29],-0.061
same,glycan array binding signal (z-score),Fuc(a1-3)GlcNAc,-0.047
same,glycan array binding signal (z-score),[30],-0.085
same,glycan array binding signal (z-score),[31],-0.066
same,glycan array binding signal (z-score),[32],-0.022
same,glycan array binding signal (z-score),[33],-0.077
same,glycan array binding signal (z-score),[34],-0.086
same,glycan array binding signal (z-score),[35],-0.015
same,glycan array binding signal (z-score),[36],-0.029
same,glycan array binding signal (z-score),[37],-0.075
same,glycan array binding signal (z-score),[38],-0.049
same,glycan array binding signal (z-score),[39],-0.059
same,glycan array binding signal (z-score),[40],-0.088
same,glycan array binding signal (z-score),[41],-0.068
same,glycan array binding signal (z-score),[42],-0.062
same,glycan array binding signal (z-score),[43],-0.064
same,glycan array binding signal (z-score),[44],-0.087
same,glycan array binding signal (z-score),[45],-0.056
same,glycan array binding signal (z-score),[46],-0.062
same,glycan array binding signal (z-score),Fuc(a1-4)GlcNAc,-0.06
same,glycan array binding signal (z-score),Fuc(b1-3)GlcNAc,-0.083
same,glycan array binding signal (z-score),Gal(a1-2)Gal,-0.088
same,glycan array binding signal (z-score),Gal(a1-3)Gal,-0.082
same,glycan array binding signal (z-score),Gal(a1-3)Gal(b1-3)GlcNAc,-0.074
same,glycan array binding signal (z-score),[47],-0.087
same,glycan array binding signal (z-score),[48],-0.034
same,glycan array binding signal (z-score),[49],-0.082
same,glycan array binding signal (z-score),[50],-0.1
same,glycan array binding signal (z-score),[51],-0.057
same,glycan array binding signal (z-score),Gal(a1-3)Gal(b1-4)Glc,-0.034
same,glycan array binding signal (z-score),Gal(a1-3)Gal(b1-4)GlcNAc,-0.084
same,glycan array binding signal (z-score),[52],-0.088
